About 2,200 (0.71%) of roughly 310,000 compounds showed an effect of 50% or more. The effect is printed as a negative number. This is one part of the list.
target: human ether-à-go-go-related gene (hERG) potassium channel (human, UniProt Q12809); experiment: primary screen, population patch clamp on CHO cells stably expressing hERG
Sequence (Q12809 whole entry, looked up): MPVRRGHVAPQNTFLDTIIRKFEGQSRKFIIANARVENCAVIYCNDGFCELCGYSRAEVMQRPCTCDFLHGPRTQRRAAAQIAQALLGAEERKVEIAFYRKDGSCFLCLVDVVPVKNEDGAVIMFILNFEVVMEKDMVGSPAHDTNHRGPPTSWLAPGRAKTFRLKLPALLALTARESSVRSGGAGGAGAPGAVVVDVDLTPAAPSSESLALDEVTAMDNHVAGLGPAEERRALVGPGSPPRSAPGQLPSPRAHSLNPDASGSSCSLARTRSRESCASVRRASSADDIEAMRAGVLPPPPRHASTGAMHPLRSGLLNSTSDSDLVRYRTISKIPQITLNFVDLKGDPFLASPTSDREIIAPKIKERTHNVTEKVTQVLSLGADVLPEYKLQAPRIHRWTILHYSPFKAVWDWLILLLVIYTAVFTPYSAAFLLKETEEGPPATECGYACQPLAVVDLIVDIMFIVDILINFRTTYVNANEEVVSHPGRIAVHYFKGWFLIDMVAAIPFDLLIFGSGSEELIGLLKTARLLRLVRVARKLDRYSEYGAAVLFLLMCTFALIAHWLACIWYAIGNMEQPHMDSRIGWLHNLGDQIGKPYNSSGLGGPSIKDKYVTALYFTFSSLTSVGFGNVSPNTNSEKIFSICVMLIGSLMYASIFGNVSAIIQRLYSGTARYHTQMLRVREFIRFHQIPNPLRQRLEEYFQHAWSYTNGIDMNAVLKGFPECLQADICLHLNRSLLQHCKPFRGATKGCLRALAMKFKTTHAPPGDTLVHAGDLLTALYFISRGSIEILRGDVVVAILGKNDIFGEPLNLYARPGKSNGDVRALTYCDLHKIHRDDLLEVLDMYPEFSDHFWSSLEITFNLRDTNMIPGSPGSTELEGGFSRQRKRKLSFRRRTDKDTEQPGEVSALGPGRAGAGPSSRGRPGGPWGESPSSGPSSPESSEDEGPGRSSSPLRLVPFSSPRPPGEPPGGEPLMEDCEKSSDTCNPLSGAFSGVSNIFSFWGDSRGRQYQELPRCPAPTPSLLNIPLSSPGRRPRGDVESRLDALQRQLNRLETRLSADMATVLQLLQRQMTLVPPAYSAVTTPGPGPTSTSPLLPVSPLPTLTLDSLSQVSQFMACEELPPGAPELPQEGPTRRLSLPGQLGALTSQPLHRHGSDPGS

| Compound | hERG current change (%, negative = inhibition) at 1uM [%] |
| --- | --- |
| CC(C)CCOc1ccc(C(=O)NCC(c2cccs2)N2CCOCC2)cc1 (centres unmarked) | 12.4 |
| COc1cc(CO)ccc1Oc1nnnn1-c1ccc(C(N)=O)cc1 | 4.09 |
| COc1ccc2oc(=O)c(C(=O)NCc3ccc(C)cc3)cc2c1 | 13.1 |
| COc1ccc(NC(=O)CCNS(=O)(=O)c2ccc3c(c2)CC(C)N3C(=O)C2CC2)cc1 (centres unmarked) | -2.22 |
| COc1ccc2cc(CO)n(C)c2c1 | 9.79 |
| O=C(O)CCc1ccc(-c2cccs2)n1NC(=O)c1ccc(Cl)cc1Cl | -1.06 |
| CCNc1ccc(C(=O)OCC(=O)c2cc(C)n(Cc3ccc4c(c3)OCO4)c2C)cc1[N+](=O)[O-] | 5.58 |
| O=C(CN(CC1CCCO1)C(=O)CNS(=O)(=O)c1ccc(F)cc1)NCC1CCCO1 (centres unmarked) | 7.37 |
| COc1ccc(C(=O)NNC(=O)CSc2nnnn2-c2cc(OC)cc(OC)c2)cc1 | 17.6 |
| Cc1cc(-c2ccc(C)c(S(=O)(=O)Nc3cc(C)on3)c2)on1 | 1.77 |
| CN1CC[C@]2(CCN3CCc4c(oc5ccccc45)[C@@H]3C2)N(C)C1=O.Cl | -2.24 |
| Cc1ccc(OC(C)C(=O)Nc2ccc(S(=O)(=O)N3CCOCC3)cc2)cc1 (centres unmarked) | 11.8 |
| CC(C)(C)n1nnnc1C(c1cccnc1)N1CCN(c2ccccc2)CC1 (centres unmarked) | 8.68 |
| O=C(CSc1ncccn1)NN=C1CCCCCCC1 | 4.7 |
| CCn1c(COc2ccc(=O)n(-c3ccccc3)n2)nnc1SCc1ccc(OC)cc1 | -34.1 |
| Cc1nc2ccccc2c2oc(C(=O)NCCCN3CCC(C)CC3)cc12 | -13.8 |
| O=C(NCc1ccccc1)C(c1ccc(O)cc1)N(C(=O)Cn1nnc(-c2cccs2)n1)c1ccc2c(c1)OCCO2 (centres unmarked) | 11.8 |
| Cn1c(=O)[nH]c(=O)c2c1nc(N1CCC(Cc3ccccc3)CC1)n2Cc1ccccc1 | 13 |
| Cc1ccc(-c2c(C(=O)N/N=C/c3ccncc3)nnn2-c2nonc2N)cc1 | 15.5 |
| O=C(Cn1ncc2c3ccccc3n(Cc3ccccc3)c2c1=O)NCc1ccccn1 | 20.7 |
| CCCCCCNC(=O)c1ncn[nH]1 | 18.7 |
| O=C(Nc1ccc(C(=O)O)c(O)c1)c1ccccc1 | 8.4 |

| Compound | hERG current change (%, negative = inhibition) at 1uM [%] |
| --- | --- |
| CCC1SC(N)=NC1=O (centres unmarked) | 12.6 |
| COc1ccc(CC(=O)N(C)CC(=O)Nc2ccc(F)cc2)cc1S(=O)(=O)N1CCOCC1 | 8.65 |
| COC(=O)c1ccc(Cn2c(O)c(N=NC(N)=S)c3ccccc32)o1 | 12.8 |
| CCOC(=O)N1CCC(NC(=O)CN2C(=O)COc3ccc(C(C)(C)C)cc32)CC1 | -5.59 |
| CCCCn1c(SCC(=O)Nc2nnc(C)s2)nc2c1c(=O)n(C)c(=O)n2C | 2.33 |
| C=CCOc1cccc(C2/C(=C(/O)c3ccc(C)cc3)C(=O)C(=O)N2CCN2CCOCC2)c1 (centres unmarked) | 3.69 |
| COc1ccc(OC)c(N(CC(=O)Nc2cccnc2)S(=O)(=O)c2ccc(OC)c(OC)c2)c1 | 8.38 |
| COc1nc(-c2cccc([N+](=O)[O-])c2)nc2ccccc12 | 14.1 |
| O=C(c1ccco1)N1N=C(c2ccc(Br)cc2)CC1c1ccco1 (centres unmarked) | 18.3 |
| COC(=O)C(O)(c1ccc(NC(=S)NC(=O)c2ccc(Cl)cc2Cl)cc1)C(F)(F)F (centres unmarked) | 12.7 |
| COc1ccc(-c2cn(-c3ccc(C)cc3)c(=O)n2CC(=O)Nc2cccc(F)c2)cc1 | 11.4 |
| Cn1c(SCc2ccc([N+](=O)[O-])cc2)nc2c(c1=O)SCC2 | -3.68 |
| O=C(Nc1ccc(-c2cn3ccccc3n2)cc1)c1ccc(Cl)cc1 | 2.67 |
| CCOc1ccc(NC(=O)C2C3CC/C=C\CCC32)cc1 (centres unmarked) | 6.75 |
| COc1ccc(S(=O)(=O)NNC(=O)c2cc3ccccc3o2)cc1 | 13.8 |
| CC(=O)c1ccccc1OC(=O)c1ccco1 | 6.46 |
| COC(=O)c1ccc(COc2ccc3c(c2)CCC3)o1 | 5.9 |
| C=CCNc1nc(NC(C)(C)CO)nc(OC)n1 | -1.93 |
| Cc1ccc(S(=O)(=O)Cc2ccc(C(=O)N3CCC(C)CC3)cc2)cc1 | -6.49 |
| Cc1cc(NC(=S)Nc2cccc3ccccc23)n[nH]1 | 8.77 |
| CN1CCN(NC(=O)/C=C/c2ccc(Br)cc2)CC1 | 6.1 |
| O=C(NC1CCN(C(=O)N2c3ccccc3Sc3ccccc32)CC1)c1ccco1 | 9.89 |

| Compound | hERG current change (%, negative = inhibition) at 1uM [%] |
| --- | --- |
| CSc1nsc(NC(=O)CCNC(=O)c2ccc([N+](=O)[O-])cc2)n1 | -1.05 |
| COc1ccccc1N1CCN(Cc2ccccc2F)CC1 | -0.226 |
| Cc1ccc(S(=O)(=O)N2CCC(C(=O)OC(C)C(=O)NC(N)=O)CC2)cc1C (centres unmarked) | 6.59 |
| Cc1ccc(S(=O)(=O)N(C)c2ccc3c(ncn3C)c2[N+](=O)[O-])cc1 | -3.48 |
| COc1ccccc1CN1CCCC(CNC(=O)c2cccc3ccccc23)C1 (centres unmarked) | 5.37 |
| Cc1nc(CS(=O)(=O)c2ccc(Cl)cc2)cc(N2CCOCC2)n1 | 13 |
| CCn1cc(Br)c(C(=O)Nc2ccc(Cl)c(Cl)c2)n1 | 12.6 |
| CC1CCN(CCC(=O)N2CCCc3c2c(=O)oc2ccc(O)cc32)CC1 | -11.5 |
| O=C(Nc1ccc2c(c1)OCO2)O[C@@H]1C[C@H]2CCCC(=O)N3CC[C@@H](C1)[C@@H]23 | 8.71 |
| Cc1oc(CN2CCOCC2)cc1C(=O)O | 7.66 |
| CC1=C(C(=O)NC(C)c2ccccc2)C2(CCC(C)CC2)OC1=O (centres unmarked) | 0.922 |
| COc1ccc(NC(=O)NC2CCCc3ccccc32)c(OC)c1 (centres unmarked) | 8.36 |
| Cc1[nH]c2ccccc2c1C(=O)COC(=O)c1c(-c2ccccc2Cl)noc1C | 1.94 |
| CCCCCC1=NN2C(=O)CC(=O)N=C2S1 | 5.37 |
| Cc1ccccc1-c1noc(CCC(=O)NCc2ccco2)n1 | 2.3 |
| Cc1cccc2c1cnn2C(=O)Nc1ccc(Br)cc1F | 20.5 |
| CCn1cc(C(=O)O)c(=O)c2cc(F)c(N3CCN(C(=S)NC(=O)c4ccc(F)cc4)CC3)cc21 | 4.19 |
| CCOc1ccc(NC(=O)CC2C(=O)N(C)C(=S)N2Cc2ccco2)cc1 (centres unmarked) | -13.2 |
| CC(=O)O.COc1ccc(OC)c(C2CC(=O)C(C)C(c3cc(OC)ccc3OC)N2)c1 (centres unmarked) | 7.49 |
| C=CCNC(=O)c1onc(CSc2ccccc2CC)c1C(=O)O | 9.32 |
| O=C(Nc1nnc(COc2ccc(Br)cc2)s1)c1ccco1 | 15.9 |
| COc1ccccc1N1CCN(CC(=O)Nc2sccc2C#N)CC1 | 2.93 |

| Compound | hERG current change (%, negative = inhibition) at 1uM [%] |
| --- | --- |
| CN(C)c1ccc(/C=N/NC(=O)CCC(=O)NCc2ccccc2)cc1 | 8.58 |
| O=S(=O)(c1c(F)cccc1F)N1CCCC2CCCCC21 (centres unmarked) | 12.7 |
| COC(=O)c1ccc(OCC(O)Cn2nnc3ccccc32)cc1 (centres unmarked) | 1.7 |
| CC(C)c1ccc(NC(=O)CSC(C)c2nc3ccccc3c(=O)[nH]2)cc1 (centres unmarked) | 5.48 |
| COC(=O)C1=CO[C@@H](C)[C@@H]2CN(CCc3c[nH]c4ccccc34)CC[C@H]12 | -16.6 |
| COc1ccccc1N(CC(=O)NCCc1ccccc1)C(=O)CCC(=O)Nc1ccccn1 | 4.77 |
| Cc1ccc2c(c1)N(CC(=O)Nc1ncccc1C)C(=O)C(C(C)C)O2 (centres unmarked) | 15.8 |
| O=C(Nc1ccccc1C(=O)O)c1ccc2c(c1)C(=O)N(c1cccc([N+](=O)[O-])c1)C2=O | 13.1 |
| O=C1COc2ccc(OCc3ccc(F)cc3)cc21 | 0.352 |
| CCn1ccnc1CNC(=O)c1ccc2oc(CCCc3ccccc3)nc2c1 | 4.28 |
| COc1cc(/C=N/NC(=O)c2ccc(CSc3nncn3C)cc2)ccc1OCC(=O)N1CC(C)OC(C)C1 (centres unmarked) | 9.4 |
| Cc1ccc(OCc2cc(C(=O)NCc3cn4ccccc4n3)no2)cc1C | -0.347 |
| CC1CCCN(C(=O)C2CCN(CC3CC=CCC3)CC2)C1.O=C(O)C(=O)O (centres unmarked) | -0.802 |
| COc1ccc(CN2C3CCCC2CC(NC(=O)Nc2ccccc2C)C3)cc1 (centres unmarked) | -36.5 |
| O=C1C2C3C=CC(CC3)C2C(=O)N1c1ccc(Cl)cc1 (centres unmarked) | 13.9 |
| Cc1ccc(CC(=O)NCCS(=O)c2ccc(Cl)cc2)cc1 (centres unmarked) | -5.69 |
| O=C1NC(=Nc2cccc(Cl)c2)SC1Cc1cccc(Cl)c1Cl (centres unmarked) | 13.4 |
| COc1ccc(C2c3[nH]c4ccccc4c3CCN2C(=O)c2ccc(=O)n(C)n2)c(F)c1 (centres unmarked) | 17.7 |
| Cc1ccc(S(=O)(=O)N2CCC(=O)N(CCOCc3cccc(C)c3)CC2)cc1 | 6.47 |
| C/C(Cl)=C\Cn1c(N2CCCCCC2)nc2c1c(=O)n(C)c(=O)n2C | 10.2 |
